Data as given in the supplement of paper PMC5499739.
In all, about 16,000 sequences were measured (“Z-score”: median about -0.37, highest 2% from about 3.1 on). Some of the results follow.

system: RBM10 RRM1-ZnF-RRM2 (GST-tagged construct); assay: RNAcompete 7-mer binding Z-score; higher = stronger binding preference
Method: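 RNAcompete: 20 pmol GST-tagged RBM10 RNA-binding constructs were incubated with a designed RNA pool of about 241,000 sequences up to 41 nt (1.5 nmol) on glutathione beads for 30 min at 4 °C and washed. Bound RNAs were identified by microarray hybridisation. Each RNA 7-mer is scored by a one-sided Z-score of its enrichment, computed over probes that contain the 7-mer within longer pool sequences.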

Row | Sequence | RNAcompete 7-mer binding Z-score
1 | UCCAAAU | -0.708
2 | UGAGCCC | -0.435
3 | UUCAUGG | 0.184
4 | CCCCUGG | -0.318
5 | GAUUGAU | 0.37
6 | GCGACAU | -0.027
7 | GCAAAUG | 0.348
8 | GGCUUCA | -0.428
9 | CGGACGU | 0.348
10 | UCAGCAC | -0.581
11 | CCCCAAA | -0.599
12 | CCGCGUC | -0.712
13 | CUGGAAG | 0.508
14 | GUGGCCC | 0.0786
15 | AAGGUAC | 1.72
16 | AGUAGGU | 2.11
17 | CGACGAC | -0.398
18 | UGACAUG | 0.246
19 | GCAUCCU | -0.777
20 | GUACGCU | -0.205

Row | Sequence | RNAcompete 7-mer binding Z-score
21 | GAACAAG | 1.24
22 | AAGAUGA | 0.363
23 | UCGGAUC | -0.067
24 | UAUCGCC | -0.723
25 | AGUGACC | 0.17
26 | CUAUGCA | -0.49
27 | CUAUGGC | -0.395
28 | CACCUAG | -0.333
29 | GUCUGUA | -0.442
30 | CCAAUUA | -0.42
31 | GUAAGCG | 0.971
32 | GCGAUAU | 0.0677
33 | UGUGUGU | 0.0859
34 | GACUGGG | 1.95
35 | UCGGGUG | 1.96
36 | GUUAUGG | 1.45
37 | CAUCCUG | -0.719
38 | GGGAUAA | 3.36
39 | AGUAAGG | 3.47
40 | CUUGCGA | -0.694

Row | Sequence | RNAcompete 7-mer binding Z-score
41 | UUGAGAC | -0.286
42 | UGAGGGU | 3.92
43 | AUUGUGC | -0.511
44 | UAGGCAU | 0.607
45 | UCGUAGG | 0.669
46 | AAGGACC | 1.56
47 | AUUUCAU | -0.646
48 | CUGCGUA | -0.555
49 | AGGUGUU | 0.873
50 | GUUGGCU | 0.0313
51 | CGCGCCU | -0.872
52 | AUACCCC | -0.595
53 | CGGGCGA | 1.59
54 | GUCACGU | -0.453
55 | UGCGAUU | -0.653
56 | CGAUAAA | -0.191
57 | GUGAUGC | 0.876
58 | UGGGGGU | 3.25
59 | UCUCUUA | -0.821
